From ChEMBL document CHEMBL4888484, “Replenishing the malaria drug discovery pipeline: Screening and hit evaluation of the MMV Hit Generation Library 1 (HGL1) against asexual blood stage Plasmodium falciparum ,using a nano luciferase reporter read-out” (2022)
Out of some 150,000 compounds screened, about 540 (0.36%) showed an effect of 50% or more. Some of the results follow.

Tested on: Plasmodium falciparum
Test: Primary screen in NF54 nanoGlo assay, in single point, at 2uM, 72h; a lower Z score goes with more inhibition
Assay type: functional, Erythrocyte
Conditions: timepoint 72 hour

| Compound | % Inhibition [%] | Z score |
| --- | --- | --- |
| O=C(ON1C(=O)CCC1=O)c1ccc(Cl)cc1Cl | -12 | 1.65 |
| CCn1cc(NC(=O)NCc2ccc(N3CCCC3=O)cc2)nn1 | 0 | -0.04 |
| Cc1noc(Cl)c1CCC(=O)N1CC2CC1(C(N)=O)C2 | -3 | 0.54 |
| NC(=O)N[C@@H](CC(=O)N1CCN(c2cccc(C(F)(F)F)c2)CC1)c1cccs1 | -26 | 3.47 |
| Cn1cc(-c2noc(C3CC3c3cccnc3)n2)cn1 (centres undefined) | -3 | 0.38 |
| COc1ccc(OC)c(CCCNC(=O)N2CCC(C)(C#N)CC2)c1 | 2 | -0.19 |
| Cc1nc(C)c(CCN[C@@H](C)c2ccc3c(c2)COC3)s1 | -15 | 1.62 |
| CC(=O)N1CCO[C@@H](CNC(=O)c2ccc(-c3ccncc3C)cc2)C1 | 1 | -0.13 |
| COc1cc(C(=O)OCC(=O)NCCC#N)cc(Cl)c1OCC(C)C | -4 | 0.7 |
| COC(=O)[C@H](NC(=O)Cc1c(C)n[nH]c1C)c1cc(C)cc(C)c1 | -13 | 1.27 |
| C[C@H]1CN(C(=O)CC(C)(C)CC(=O)O)CC(C)(C)O1 | -12 | 1.37 |
| CCN1CCn2cc(S(=O)(=O)NCc3ccccc3C(F)(F)F)cc2C1=O | 2 | -0.29 |
| Cc1cc2ncc(NS(=O)(=O)Cc3cc(F)ccc3F)cn2n1 | -8 | 1.09 |
| CS(=O)(=O)CCCNc1cc(CO)ccc1Br | 14 | -1.77 |
| CN1CCC2CCN(C(=O)Nc3cc(Cl)ccc3Cl)C2C1 (centres undefined) | -5 | 0.62 |
| CC(C)C(=O)N1CCc2ccc(OCc3ccc(C(=O)NC4CC4)o3)cc2[C@@H]1c1ccccc1 | -21 | 1.92 |
| CCn1nc2c(c(C(F)F)cc(=O)n2CCC(=O)N2CCCc3cc(C)ccc32)c1C | 30 | -3.37 |
| CC(C)(CNC(=O)CCn1ccccc1=O)Cc1ccccc1 | -9 | 1.27 |
| CC(C)(C)C[C@H](NC(=O)NC1CCOCC1)c1ccc(Cl)cc1 | -12 | 2.3 |
| Cc1noc(C)c1CN[C@@H](Cc1ccc(Cl)cc1)c1ccccn1 | -7 | 1.12 |
| Cc1nc(C)n(C2CN(c3ncnc4sccc34)C2)n1 | 13 | -2.02 |
| O=C(NC1CCCC1)c1cccn1-c1nnc(N2CCCCCC2)s1 | -10 | 1.48 |

| Compound | % Inhibition [%] | Z score |
| --- | --- | --- |
| COc1c(C)cc(C(=O)[C@H]2CCCN(c3cc(N)ncn3)C2)cc1C | 78 | -15.48 |
| CN(C)CC[C@H]1CN(C(=O)c2ccc3cccc(Cl)c3n2)CCO1 | 3 | -0.53 |
| Cc1ccc2c(c1)NC(=O)c1cc(S(=O)(=O)N3CCCCC3)c(NC3CCCC3)cc1O2 | -22 | 3.16 |
| COC(=O)c1cc(NC(=O)N2CC[C@H]3CC[C@@H](C2)N3C)cc(C(=O)OC)c1 | -3 | 0.36 |
| Cc1nonc1C(=O)N1CCN(c2nccs2)CC1 | 13 | -1.51 |
| N#Cc1cccc(S(=O)(=O)Nc2cccn3nc(C4CC4)nc23)c1 | 10 | -1.19 |
| CCc1nccn1CCNC(=O)c1ccccc1NC(=O)[C@@H](C)CC | 4 | -0.65 |
| CC(C)c1nc(CN2CCC[C@H](O)c3cc(F)ccc32)no1 | -4 | 0.54 |
| Cc1nc(C(=O)N[C@H]2CCN(c3ncccc3F)C2)c2ccccn12 | -1 | 0.08 |
| N#Cc1ccsc1NC(=O)CCN1CCC[C@H]1c1ccc2c(c1)OCCCO2 | 4 | -0.49 |
| COCc1nc(CCNC(=O)C(C)C)no1 | 4 | -0.48 |
| Cc1csc([C@@H](C)CNc2ncnc3sccc23)n1 | -7 | 1.11 |
| O=C(CCn1ccccc1=O)Nc1ncccc1OCC1CCCCC1 | 11 | -1.19 |
| CN(C)CC(C)(C)CNC(=O)CC1CCN(C(=O)OC(C)(C)C)CC1 | 5 | -0.47 |
| O=C(Nc1cccn2cnnc12)N(Cc1ccsc1)C1CCCCC1 | -14 | 1.56 |
| CNC(=O)CN1CCC(C(C)(F)F)CC1 | -2 | 0.33 |
| CCN=C(NCCc1nc(C)no1)NCc1ccc(OC)c(OC)c1 | -8 | 1.11 |
| COC(=O)[C@H]1CC[C@@H](NC(=O)OCc2ccccc2)C1 | 0 | 0.01 |
| COc1cccc(-c2nccn2CCNc2ncccc2C)c1OC | 5 | -0.58 |
| CC(=O)N[C@H]1C[C@@H](c2[nH]c3ccc(Cl)cc3c2C)O[C@@H](C(C)C)C1 | -5 | 0.9 |
| Cc1cc(C)c2[nH]c(C(=O)N3CCCN([C@H]4COC[C@@H]4O)CC3)c(C)c2c1 | -2 | 0.34 |
| Cc1nnc(NCCc2csc(N3CCCC3)n2)c(C#N)c1C | -5 | 0.49 |

| Compound | % Inhibition [%] | Z score |
| --- | --- | --- |
| Cc1ccc(CN2C[C@@H](CO)[C@H](NC(=O)c3ccccc3)C2)o1 | -10 | 1.44 |
| Cc1cc(C(=O)N2C[C@H](C3CC3)[C@@H](N)C2)cs1 | -8 | 1.06 |
| Cn1cncc1CCNc1ccc(C#N)cn1 | 2 | -0.25 |
| Cc1cc(NC(=O)CN2C(=O)CN(c3ccc(Br)cc3)C2=O)no1 | -7 | 1.13 |
| CN(C)S(=O)(=O)N1CC(Oc2ccccc2)C1 | -7 | 1.14 |
| CN(Cc1ccccc1)C(=O)C[C@H]1CCN(C(=O)c2cnccn2)C1 | 38 | -5.54 |
| CN1CCN([C@@H]2COC3(C2)CN(C(=O)Cc2ccccc2F)C3)CC1 | -15 | 2.3 |
| O=C(OC1CCOCC1)N1CC[C@H](Oc2ccncn2)C1 | -12 | 1.84 |
| CO[C@@H](CNC(=O)NC(C)C)c1ccccc1C | 22 | -2.74 |
| Cc1noc(CN(C)C(=O)c2cccc(S(=O)(=O)N3CCNCC3)c2)n1 | -24 | 2.58 |
| CCCCCC(=O)N[C@@H](C(=O)O)c1c(C)n[nH]c1C | -8 | 1.02 |
| Cc1ccc(C(C)(C)CN(C)C(=O)c2nc(C)c(C)[nH]c2=O)cc1 | -7 | 1.31 |
| COc1ccc(C(C)(C)C(=O)N2CCCC2C2CCCCC2O)cc1 (centres undefined) | 0 | -0.04 |
| CC(C)C(=O)NCCCNC(=O)NCC1C2CCc3ccccc3C21 (centres undefined) | -4 | 0.5 |
| COc1ccc(NC(=O)N2CC(n3nc(C)nc3C)C2)cc1 | 3 | -0.47 |
| O=C(Cn1ccccc1=O)Nc1cccc(N2CCCC2=O)c1 | -16 | 1.91 |
| CCOc1cccc(Cn2cc(Br)ccc2=O)n1 | 33 | -4.39 |
| CCc1ncnc(O[C@H]2CCN(C(=O)Cn3cnc4ccccc4c3=O)C2)c1F | -4 | 0.62 |
| Cc1ccc(-c2cn[nH]c2[C@H]2CCCN(C(=O)c3ccccc3C#N)C2)cc1 | -3 | 0.53 |
| Cc1nnc(CS(=O)(=O)[C@@H](C)c2c(F)cccc2F)n1C | 1 | -0.09 |
| CC(C)N1CCC(CC(=O)N2CCCC[C@@H]2CCn2ccnc2)CC1 | -2 | 0.42 |
| CCCN(C)S(=O)(=O)NC(=O)C1CC=CC1 | -10 | 1.03 |

| Compound | % Inhibition [%] | Z score |
| --- | --- | --- |
| COc1ccccc1CC(=O)N1CC[C@H](c2nc3ccncc3n2C(C)C)C1 | -13 | 1.32 |
| CN(CCc1ncnn1-c1ccc2c(c1)OCCO2)[C@H]1CCS(=O)(=O)C1 | -13 | 1.26 |
| Cn1ccc(-c2nnc(NC(=O)C3CCCCC3)o2)n1 | -10 | 1.57 |
| Cc1cc(F)cc(NC(=O)NCCCN2CCCN(C)CC2)c1 | -3 | 0.5 |
| Cc1cc(NC(=O)COc2ccc3c(n2)CCC3)n(C)n1 | -6 | 1.15 |
| COCc1nc(-c2scc3c2CCCC3)n(CCO)n1 | 5 | -0.43 |
| CCN(C(=O)c1cn(CC(F)F)nc1C)[C@H]1CCNC1=O | -6 | 0.63 |
| CC(C)c1noc(N2CC(C(N)=O)CCC2C)n1 (centres undefined) | -6 | 0.64 |
| Cc1ccc(CCC(=O)NCCCc2cccnc2)cc1C | -13 | 1.37 |
| CCn1c(CN2CC(N3CCNC3=O)C2)nc2ccccc21 | -3 | 0.59 |
| CCN1C[C@H](CN(C)C(=O)c2ccc(OC)c(F)c2)Oc2ccccc21 | -11 | 1.6 |
| Cc1ccc(Cn2cccc2C(=O)C(=O)Nc2ccc(F)cc2Cl)cc1 | -8 | 0.74 |
| CC[C@@H]1Oc2ccc(NS(=O)(=O)c3cccc(Cl)c3)cc2CN(Cc2ccccc2)C1=O | -10 | 1.27 |
| O=C([C@@H]1COc2ccccc2O1)N1CCCc2cc(S(=O)(=O)N3CCCC3)ccc21 | -9 | 1.07 |
| N#Cc1ccc(N2CCC(O)C3CCCCC32)nn1 (centres undefined) | -5 | 0.61 |
| CC(C)(C)n1cc(CNc2ncccc2OC(F)F)cn1 | -10 | 1.25 |
| c1nc(C2CC2)c(CNC[C@H]2CCOC3(CCC3)C2)s1 | 2 | -0.39 |
| CCn1nnnc1-c1cccc(NCc2cccc(C#N)c2)c1 | -5 | 1.03 |
| C=CCN(c1ccc2nnc(C(F)(F)F)n2n1)C1CC1 | -4 | 0.49 |
| Cc1noc(CN2CC(O)=C(c3nc4ccccc4s3)C2=N)n1 | 0 | 0.04 |
| CCn1ncnc1[C@H](C)NC(=O)Nc1ccc(Cl)c(C)c1 | -7 | 1.36 |
